Measurements: the RNAGym collection of RNA variant scans (doi:10.7554/elife.90254)
Read counts are not given, so values of variants with three or more changes are uncertain.

B1: LINE1-full (parent)
chain: UACGUAGGUGGUUUUCCCCUGAUAGUGCUAAGGGGGCCUGGAAGUUUGGACUGGGCAGAGCUCAACACAGCGUGGCAAAGUGGCUGUGGCUAGACUGCCUCUCUGGAUUCCUCGUCACUCAGCAGGGCAUCUCUGAGAGAAAUGCC

Variants of: B1
Assay: self-cleavage, relative activity (ratio to wild type); higher = more cleavage; in vitro, sequencing; the parent is a self-cleaving ribozyme

Row | Variant | self-cleavage
1 | U12C A42G A140G | 1.53
2 | U12C U87A U143C | 0.06
3 | U12C A43U U47C A129G U132A | 1.15
4 | U12C A31G A117G | 1.91
5 | U12C U46C C84U A121U | 0.24
6 | U12A U23C C38G A64G C76U A92G A94G U134C | 0
7 | U12C A69U U109A | 0.08
8 | U12C U13C U20G G34U U132C | 0.88
9 | U12C U39C G80C C113A U119C | 1.16
10 | U12A U15A U20C | 1.06
11 | U12C U29A A121G | 1.45
12 | U12C U13C U112C | 1.28
13 | G11U A124U A136U | 1.59
14 | U12C A79G U108C U130C | 1.38
15 | U12C U15C U47C A67U | 0.83
16 | U12C A43G U112A | 0.99
17 | G10U A42G U47C U73A | 0.98
18 | U12A A30U A50G A57G | 1.38
19 | U12C A43G G125A | 1.37
20 | U12C U13C U39A A67G G88A U100C A142G | 0
21 | U12C A24U C63U U108C | 0.56

Row | Variant | self-cleavage
22 | U12C U20A U104C | 1.48
23 | G11A U132C A138G | 1.29
24 | U12C U73A A124C | 2.3
25 | U12A U45C U87C | 0.31
26 | U12C U15C U87A A117U | 0
27 | U12A A64G U112C A117U C120A A142G | 0.18
28 | U12C C38A G72C | 1.02
29 | G11A U20C A124U | 1.89
30 | U12C G58A U143C | 0.2
31 | U12A U13C U39C A43G | 1.69
32 | U12C U23C U87C U109A A121G A129U A136G | 1.84
33 | U12C U14C G27A A64G U85C A124U A142G | 0
34 | U12C C98U U108C | 0.85
35 | U12C U13C A117U U130C | 1.19
36 | U12C A22G U73C A136G A140G | 0
37 | U12C A50G A57U | 0.39
38 | U12C C19A A94G U115C A140G | 0
39 | U12C U108C A124U U143C | 1.62
40 | U12C A117G A138G | 1.53
41 | U12A A22G U104A U112A A121U | 1.06
42 | U12C A138G G144A | 1.61

Row | Variant | self-cleavage
43 | U12C A57G C146U | 0.85
44 | U12C U23C C146U | 1.84
45 | U12C A31G G32A | 1.31
46 | G11A U52A A67G | 0.36
47 | U12A U96A U119C A121U A138G C146U | 0.05
48 | U12C C116U U143C | 1.35
49 | U12C G86U U100C U109C | 0.15
50 | U12C A65G U85A U102C | 0.31
51 | G11A G106A A129G | 1.77
52 | U12A U29C A77G | 2.18
53 | U12C U85C G89A U91A C101A | 0
54 | U12C U104A A136G | 0.99
55 | G11A A57G U85C U115G C120A A136C | 0
56 | U12C U23C G74A C98U A107G A142G | 0.39
57 | U12C U45A U96A A140G | 0.03
58 | U12C U26A C111U U134G A140G | 1.09
59 | U12C A124U A129G | 1.61
60 | U12C G40C U115A | 2.35
61 | U12C U13C G27A C76U A107G U108C | 2.22
62 | U12C U20C U81A | 1.95
63 | U12C G48U A65U A129U | 0.11

Row | Variant | self-cleavage
64 | U12C U62C A77G G114A U119C U132A A142G | 0.08
65 | U12C G74U A141G | 1.67
66 | U12C C71A U91C U134A | 0.09
67 | G11U A69G A78G | 0.47
68 | U12C U20C C120U A140G | 2.27
69 | U12C U14C A140U | 0.55
70 | U12C U46C U109A | 0.8
71 | U12C A31G G60A A69G U96C | 0
72 | U12C U23A A43G | 1.06
73 | U12C A42U A64G | 0.35
74 | U12C U15A U102C A138G | 0.74
75 | U12C U62C A64G G89A U96C A138G A141G | 0.1
76 | U12C A43G A78G U104A U115C | 1.31
77 | U12C U14C A94G | 0.92
78 | U12C A50G G93C U112C A129G | 0
79 | U12C G33A U73C A94G G126A | 0.63
80 | U12C A31U G35A | 1.06
81 | U12A U26A A42G U46C U134C | 0.87
82 | U12C G44A A94G | 0.2
83 | U12C U20C U47C G70A U100A | 0.3
